Experimental findings from article PMC6919601, “Identification of Plasmodium dipeptidyl aminopeptidase allosteric inhibitors by high throughput screening” (PLoS ONE, 2019) are described below.

Structures are written as SMILES. About 230 (0.21%) of roughly 110,000 compounds showed an effect of 50% or more. The list shows a part of the results.
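Also: 30 min substrate incubation versus DMSO and 10 µM JCP410 controls.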

DPAP1, sequence (Q8IIJ9 whole entry, looked up): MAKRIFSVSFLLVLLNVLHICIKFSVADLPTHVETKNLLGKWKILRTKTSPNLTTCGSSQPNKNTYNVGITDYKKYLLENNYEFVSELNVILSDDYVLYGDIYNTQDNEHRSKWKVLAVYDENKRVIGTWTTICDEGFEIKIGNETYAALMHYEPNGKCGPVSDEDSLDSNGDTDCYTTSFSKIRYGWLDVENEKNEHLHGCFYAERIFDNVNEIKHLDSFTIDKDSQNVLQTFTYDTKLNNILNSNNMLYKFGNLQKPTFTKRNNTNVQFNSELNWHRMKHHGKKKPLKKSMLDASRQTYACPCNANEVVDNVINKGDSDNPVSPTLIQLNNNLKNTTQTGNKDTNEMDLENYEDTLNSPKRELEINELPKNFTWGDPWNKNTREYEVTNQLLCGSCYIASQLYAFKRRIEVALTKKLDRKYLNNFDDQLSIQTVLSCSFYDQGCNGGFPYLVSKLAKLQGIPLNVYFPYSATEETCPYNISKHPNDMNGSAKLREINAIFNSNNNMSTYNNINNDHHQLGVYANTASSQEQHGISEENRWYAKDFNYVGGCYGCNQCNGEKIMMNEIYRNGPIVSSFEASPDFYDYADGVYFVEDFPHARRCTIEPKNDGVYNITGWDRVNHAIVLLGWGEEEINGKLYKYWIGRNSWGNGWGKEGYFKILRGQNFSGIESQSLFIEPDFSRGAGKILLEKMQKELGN

This experiment concerns the target DPAP1 (Plasmodium falciparum, UniProt Q8IIJ9). Put plainly: primary screen, percent inhibition; read by cleavage of a fluorogenic dipeptide substrate; higher = more effect of the substance. Also noted: species or system P. falciparum D10 trophozoite lysates; single well.
With `CS(=O)(=O)N(Cc1ccc(C(=O)NCc2ccccc2Cl)cc1)c1ccccc1`, the “% Inhibition @ 10 uM” value is -15.1%.
For the molecule `COc1ccc(C2CC(C(F)(F)F)n3nc(C(=O)NCc4cccs4)cc3N2)cc1OC` (centres unmarked), the “% Inhibition @ 10 uM” value is -0.478%.
As for `COc1ccc(CN2CC(C(=O)NCCCN3CCC(Cc4ccccc4)CC3)CC2=O)cc1` (centres unmarked), the figure is 1.62%; as for `COc1ccc(-c2cc(C(F)F)n3ncc(C(=O)NC(C)C4CCCO4)c3n2)cc1` (centres unmarked), -0.958%.
Next, `CCOc1ccc(-[n+]2c(-c3ccccc3)cn3c2CCC3)cc1`: 4.41%; `O=C(NCc1nnc(SCC(=O)N2CCCC2)o1)c1cccs1`: -9.23%.
As for `CCOc1ccccc1NC(=O)c1ccc(Br)cc1`, the figure is -1.22%.
Regarding `Nc1ccc(C(=O)Nc2ccncc2)c(C(=O)O)c1`, the “% Inhibition @ 10 uM” value was 0.214%.
Next, `CCC(=O)NS(=O)(=O)c1ccc(NC(=O)c2ccccc2Cl)cc1`: 3.53%; `Clc1ccc(N2CCN(Cc3cccc(Br)c3)CC2)cc1`: -0.405%; `CCOC(=O)c1c(C)oc2ncnc(N3CCC(c4ccccc4)C3)c12` (centres unmarked): -5.76%.
Take `Cc1ccc(NC(=O)CN(c2ccc(F)cc2)S(C)(=O)=O)cc1C`: the “% Inhibition @ 10 uM” value is -3.25%.
As to `Cc1cccc(NC(=O)CN2C(=O)C3C4C=CC(C5CC45)C3C2=O)c1` (centres unmarked), the “% Inhibition @ 10 uM” value is -7.9%.
As for `CCOc1cc(-c2c(C)c(CC)nc(N)c2C#N)ccc1O`, the figure is -4.21%; as for `CCCC(=O)n1nc(-c2ccco2)nc1NCc1ccc(Cl)cc1`, -5.08%.
As for `Cc1ccc(CN2CCN(CC(=O)N3CCC4(CC3)OCCO4)C2=O)cc1`, the figure is -5.06%; as for `COc1ccc(-n2c(C(F)(F)F)nc3ccccc3c2=O)cc1`, -0.949%; as for `CCOC(=O)c1c(C)oc2ncnc(NCc3ccccc3OCC)c12`, 1.92%.
As for `Cc1ccc(Cl)cc1-n1ncc2c(NCC(=O)O)ncnc21`, the figure is -1.62%; as for `CN1CCN(C(=O)NCCC2CCCCC2)CC1`, -0.132%.
Regarding `CN(CCCNC(=O)Cn1ncc2c3ccccc3n(C)c2c1=O)Cc1ccccc1`, the “% Inhibition @ 10 uM” value is given as -0.23%.
As for `Cc1ccc(S(=O)(=O)N2CCN(C(=O)OC(C)C)CC2)cc1`, the figure is -0.48%; as for `O=C(Nc1cccc(Cl)c1)Nc1ccc(Cl)c(C(=O)O)c1`, 1.64%.
Next, `CCc1ccc(-c2cc(C)no2)cc1S(=O)(=O)N1CCC(C)CC1`: -2.5%; `Cc1csc2c(=O)n3c(nc12)CCCCC3`: 5.37%.
Take `c1cc2nsnc2c2c1Nc1nc3nonc3nc1N2`: the “% Inhibition @ 10 uM” value was 1.31%.
As for `COc1cccc(C2CC(=O)NC3=C2C(=O)CCC3)c1OC` (centres unmarked), the figure is -4.53%; as for `CC(C)(C)C1CCc2c(sc3nnn(CC(=O)c4cccs4)c(=O)c23)C1` (centres unmarked), 2.41%; as for `NC(=O)CSc1ccc(-c2cccs2)nn1`, -2.26%.
Next, `COc1cc(NS(=O)(=O)c2ccc(NC(=O)c3ccc(Br)o3)cc2)nc(OC)n1`: 9.05%.
Next, `CC(C)(CNS(=O)(=O)c1ccc(Cl)cc1)CNS(=O)(=O)c1ccc(Cl)cc1`: 0.331%.
Turning to `O=C(O)c1ccccc1-c1ncc(-c2ccccc2)o1`, the “% Inhibition @ 10 uM” value is -4.06%.
As for `COc1ccc(S(=O)(=O)n2nc(-c3ccc(C)cc3)cc2N)cc1OC`, the figure is -2.19%; as for `CC(C)Oc1ccc(Br)cc1/C=C1\SC(N)=NC1=O`, -9.93%.
As for `O=C(O)c1cc(O)ccc1NC(=O)c1cccc2ccccc12`, the figure is 19.2%.
As for `O=C(Cn1ncn2cccc2c1=O)N1CCCC1`, the figure is -4.93%; as for `CCOC(=O)c1ccc(CS(=O)(=O)c2ccc(Cl)cc2)o1`, -0.657%; as for `COc1ccccc1-c1cc(C(=O)NC2CCCC2)no1`, -2.65%.
As to `CC1=NN(C(=O)c2ccccc2Cl)C(O)(c2cccnc2)C1` (centres unmarked), the “% Inhibition @ 10 uM” value came to 5.39%.
Consider `CC(C)Cc1ccc2c(N)c(C(=O)O)sc2n1`, for which the “% Inhibition @ 10 uM” value is recorded as 15.8%.
Take `N#Cc1cc2c(nc1SCC(=O)NCCc1ccccc1)CCC2`: the “% Inhibition @ 10 uM” value is listed as -3.16%.
As to `CC(C)(C)c1ccccc1OCCCCN1CCCCC1`, the “% Inhibition @ 10 uM” value was -2.12%.
As for `CCCN1CCC(N2CCN(c3ccccc3F)CC2)CC1`, the figure is 1.29%; as for `CCOC(=O)c1c(C)n(C)c2cc(Br)c(C(=O)OC)cc12`, 5.77%; as for `COc1ccc(C2=NN(CCC(=O)N3CCCCC3)C(=O)CC2)cc1`, -8.34%.
As for `CC1=C(C(=O)Nc2ccccc2F)C(c2ccco2)C(C#N)=C(SCC(=O)NC(C)(C)C)N1` (centres unmarked), the figure is 0.536%; as for `CCOc1ccccc1N(CC(=O)NC1CCCC1)S(C)(=O)=O`, 3.74%.
Next, `CCn1c(=O)c2sccc2n2c(CCCC(=O)NCCc3ccc(Cl)cc3)nnc12`: -3.01%; `O=C(Cn1ccc2ccccc2c1=O)NCCC(=O)Nc1cccnc1`: 5.12%; `CCCCNS(=O)(=O)c1ccc(NS(=O)(=O)c2ccc(Br)cc2)cc1`: -7.58%.
Regarding `CCOc1ccc(NC(=O)CN2C(=O)S/C(=C/c3cc(C)n(-c4ccncc4)c3C)C2=O)cc1`, the “% Inhibition @ 10 uM” value was found to be 7.62%.
Next, `O=C(NC1CCCCC1)c1ccc(Cl)c(S(=O)(=O)N2CCCCCC2)c1`: 6.69%; `N#CC1(c2ccccc2)CCCN1C(=O)c1ccco1` (centres unmarked): -1.02%; `Cc1cccc(NC(=O)CN(c2cccc(Br)c2)S(C)(=O)=O)c1`: -5.92%.
Next, `Cc1ccc(NC(=O)CCNS(=O)(=O)c2ccc3nc(O)ccc3c2)nc1`: -5.23%; `Cc1oc2ncn(C)c(=O)c2c1C(=O)N(C)Cc1ccccc1`: -4.17%.
As for `Cc1cc(=O)n(CC(=O)N2CCOCC2)c2c1c(C)nn2C`, the figure is -1.56%; as for `CC(C)(C)N(Cc1ccccc1)C(=O)c1cccs1`, -3.44%; as for `O=C1CCCC2=C1C(c1ccc(OCc3ccccc3F)cc1)C1=C(CCCC1=O)O2`, 1.88%.
For `CC(C(=O)N1CCCCC1)n1c2ccccc2c2cnn(C)c(=O)c21` (centres unmarked), the “% Inhibition @ 10 uM” value is -3.79%.
As for `CC1Cc2ccccc2N1S(=O)(=O)c1ccc(Cl)nc1` (centres unmarked), the figure is 0.389%; as for `COc1ccc(OC)c(CN2CCCC(O)C2)c1` (centres unmarked), -2.56%.
Next, `COc1cccc(-n2nnc3c(=O)n(CC(=O)NCc4ccco4)cnc32)c1`: 1.24%; `COc1ccccc1C(=O)Nc1ccc2oc(-c3ccc(Cl)cc3Cl)nc2c1`: 1.91%; `COc1ccc(Br)cc1/C=C1/N=C(c2cccc3ccccc23)OC1=O`: -5.11%.
